# Measured values as given in the supplement of paper PMC4967469.
# pIC50: −log10 of the molar value. The IC50 comes from the fitted curve, where viability falls to half of the control; where the fit passes the top or lowest dose, that dose stands as a limit. For AUC the same curve is integrated over the 256-fold range of doses and scaled to a fraction; values near 1 show little effect. For part of these data: Where the top dose is marked as inferred, it was derived from the fitted curves, not read from the paper. For part of these data: Drugs with an entry number were screened twice under separate entries, and the two screens often disagree.
# What was measured:
# Experiment in all cases: Viability of human cancer cell lines after 72 h of drug (GDSC screen)
# XMD13-2 = compound: O=C(NC1CC1)c1cccc(-c2ccc3c(NC(=O)C4CC4)n[nH]c3c2)c1 [XMD13-2]; conditions: top dose 10.24 µM; top dose inferred
# Description: (§1)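 Human cancer cell lines in 384-well plates, medium with 10% serum, drug for 72 h over a 256-fold dose range (nine 2-fold or five 4-fold steps up to the top dose). Adherent lines were fixed and stained with the nucleic acid dye Syto60, suspension lines read with resazurin; signal relative to control wells, capped at 0 and 100%. One two-parameter sigmoid per drug and line, fitted in a mixed model over all curves with the slope shared within a line.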
# PF-562271 = compound: CN(c1ncccc1CNc1nc(Nc2ccc3c(c2)CC(=O)N3)ncc1C(F)(F)F)S(C)(=O)=O [PF-562271]; conditions: top dose 2.56 µM; top dose inferred
# Description: as §1
# Afatinib = compound: CN(C)C/C=C/C(=O)Nc1cc2c(Nc3ccc(F)c(Cl)c3)ncnc2cc1O[C@H]1CCOC1 [Afatinib]
# Description: as §1
# SNX-2112 = compound: CC1(C)CC(=O)c2c(C(F)(F)F)nn(-c3ccc(C(N)=O)c(N[C@H]4CC[C@H](O)CC4)c3)c2C1 [SNX-2112]; conditions: top dose 2.56 µM
# Description: as §1
# Vinblastine = compound: CC[C@]1(O)C[C@@H]2CN(CCc3c([nH]c4ccccc34)[C@@](C(=O)OC)(c3cc4c(cc3OC)N(C)[C@H]3[C@@](O)(C(=O)OC)[C@H](OC(C)=O)[C@]5(CC)C=CCN6CC[C@]43[C@@H]65)C2)C1 [Vinblastine]; conditions: top dose 0.1 µM; top dose inferred
# Description: as §1
# [1] = top dose 0.5 µM, screen: GDSC drug entry 1032
# [2] = top dose 10 µM, screen: GDSC drug entry 1377, top dose inferred
cell line,measurement,setting,value
"SW982 (soft tissue, adherent)",AUC,XMD13-2,0.967
same,pIC50,XMD13-2,< 4.99
same,AUC,PF-562271,0.547
same,pIC50,PF-562271,6.67
same,AUC,Afatinib; [1],0.985
same,pIC50,Afatinib; [1],< 6.30
same,AUC,Afatinib; [2],0.959
same,pIC50,Afatinib; [2],< 5.00
same,AUC,SNX-2112,0.381
same,pIC50,SNX-2112,7.13
same,AUC,Vinblastine,0.436
same,pIC50,Vinblastine,8.38
"EW-1 (Ewing sarcoma, semi-adherent)",AUC,XMD13-2,0.822
same,pIC50,XMD13-2,5.27
same,AUC,PF-562271,0.923
same,pIC50,PF-562271,< 5.59
same,AUC,Afatinib; [1],0.989
same,pIC50,Afatinib; [1],< 6.30
same,AUC,Afatinib; [2],0.987
same,pIC50,Afatinib; [2],< 5.00
same,AUC,SNX-2112,0.257
same,pIC50,SNX-2112,7.46
same,AUC,Vinblastine,0.423
same,pIC50,Vinblastine,8.41
"A2058 (melanoma, adherent)",AUC,XMD13-2,0.925
same,pIC50,XMD13-2,< 4.99
same,AUC,PF-562271,0.91
same,pIC50,PF-562271,< 5.59
same,AUC,Afatinib; [1],0.988
same,pIC50,Afatinib; [1],< 6.30
same,AUC,Afatinib; [2],0.988
same,pIC50,Afatinib; [2],< 5.00
same,AUC,SNX-2112,0.926
same,pIC50,SNX-2112,< 5.59
same,AUC,Vinblastine,0.375
same,pIC50,Vinblastine,8.53
"SCC-9 (head and neck, adherent)",AUC,XMD13-2,0.838
same,pIC50,XMD13-2,5.00
same,AUC,PF-562271,0.877
same,pIC50,PF-562271,< 5.59
same,AUC,Afatinib; [1],0.978
same,pIC50,Afatinib; [1],< 6.30
same,AUC,Afatinib; [2],0.311
same,pIC50,Afatinib; [2],6.80
same,AUC,SNX-2112,0.368
same,pIC50,SNX-2112,7.21
same,AUC,Vinblastine,0.554
same,pIC50,Vinblastine,8.04
"8-MG-BA (glioma, adherent)",AUC,XMD13-2,0.861
same,pIC50,XMD13-2,5.11
same,AUC,PF-562271,0.884
same,pIC50,PF-562271,5.61
same,AUC,Afatinib; [1],0.986
same,pIC50,Afatinib; [1],< 6.30
same,AUC,Afatinib; [2],0.962
same,pIC50,Afatinib; [2],< 5.00
same,AUC,SNX-2112,0.383
same,pIC50,SNX-2112,7.11
same,AUC,Vinblastine,0.44
same,pIC50,Vinblastine,8.36
"U-698-M (B-cell leukaemia, suspension)",AUC,XMD13-2,0.888
same,pIC50,XMD13-2,< 4.99
same,AUC,PF-562271,0.952
same,pIC50,PF-562271,< 5.59
same,AUC,Afatinib; [1],0.987
same,pIC50,Afatinib; [1],< 6.30
same,AUC,Afatinib; [2],0.942
same,pIC50,Afatinib; [2],< 5.00
same,AUC,SNX-2112,0.335
same,pIC50,SNX-2112,7.25
same,AUC,Vinblastine,0.364
same,pIC50,Vinblastine,8.58
"HDLM-2 (Hodgkin lymphoma, suspension)",AUC,XMD13-2,0.973
same,pIC50,XMD13-2,< 4.99
same,AUC,PF-562271,0.964
same,pIC50,PF-562271,< 5.59
same,AUC,Afatinib; [1],0.984
same,pIC50,Afatinib; [1],< 6.30
same,AUC,Afatinib; [2],0.98
same,pIC50,Afatinib; [2],< 5.00
same,AUC,SNX-2112,0.957
same,pIC50,SNX-2112,< 5.59
same,AUC,Vinblastine,0.423
same,pIC50,Vinblastine,8.41
"ONS-76 (medulloblastoma, adherent)",AUC,XMD13-2,0.83
same,pIC50,XMD13-2,5.15
same,AUC,PF-562271,0.884
same,pIC50,PF-562271,< 5.59
same,AUC,Afatinib; [1],0.984
same,pIC50,Afatinib; [1],< 6.30
same,AUC,Afatinib; [2],0.976
same,pIC50,Afatinib; [2],< 5.00
same,AUC,SNX-2112,0.584
same,pIC50,SNX-2112,6.56
same,AUC,Vinblastine,0.445
same,pIC50,Vinblastine,8.36
"LB1047-RCC (kidney, adherent)",AUC,XMD13-2,0.966
same,pIC50,XMD13-2,< 4.99
same,AUC,PF-562271,0.874
same,pIC50,PF-562271,< 5.59
same,AUC,Afatinib; [1],0.876
same,pIC50,Afatinib; [1],< 6.30
same,AUC,Afatinib; [2],0.671
same,pIC50,Afatinib; [2],5.70
same,AUC,SNX-2112,0.549
same,pIC50,SNX-2112,6.65
same,AUC,Vinblastine,0.771
same,pIC50,Vinblastine,7.36
"NCI-H596 (lung adenocarcinoma, adherent)",AUC,XMD13-2,0.91
same,pIC50,XMD13-2,< 4.99
same,AUC,PF-562271,0.949
same,pIC50,PF-562271,< 5.59
same,AUC,Afatinib; [1],0.941
same,pIC50,Afatinib; [1],< 6.30
same,AUC,Afatinib; [2],0.941
same,pIC50,Afatinib; [2],< 5.00
same,AUC,SNX-2112,0.689
same,pIC50,SNX-2112,6.20
same,AUC,Vinblastine,0.85
same,pIC50,Vinblastine,< 7.00
"NCI-H1048 (small cell lung carcinoma, adherent)",AUC,XMD13-2,0.943
same,pIC50,XMD13-2,< 4.99
same,AUC,PF-562271,0.929
same,pIC50,PF-562271,< 5.59
same,AUC,Afatinib; [1],0.928
same,pIC50,Afatinib; [1],< 6.30
same,AUC,Afatinib; [2],0.988
same,pIC50,Afatinib; [2],< 5.00
same,AUC,SNX-2112,0.313
same,pIC50,SNX-2112,7.29
same,AUC,Vinblastine,0.498
same,pIC50,Vinblastine,8.21
"EW-13 (Ewing sarcoma, suspension)",AUC,XMD13-2,0.765
same,pIC50,XMD13-2,5.38
same,AUC,PF-562271,0.833
same,pIC50,PF-562271,5.72
same,AUC,Afatinib; [1],0.976
same,pIC50,Afatinib; [1],< 6.30
same,AUC,Afatinib; [2],0.982
same,pIC50,Afatinib; [2],< 5.00
same,AUC,SNX-2112,0.32
same,pIC50,SNX-2112,7.33
same,AUC,Vinblastine,0.927
same,pIC50,Vinblastine,< 7.00
"Mewo (melanoma, adherent)",AUC,XMD13-2,0.962
same,pIC50,XMD13-2,< 4.99
same,AUC,PF-562271,0.984
same,pIC50,PF-562271,< 5.59
same,AUC,Afatinib; [1],0.974
same,pIC50,Afatinib; [1],< 6.30
same,AUC,Afatinib; [2],0.951
same,pIC50,Afatinib; [2],< 5.00
same,AUC,SNX-2112,0.961
same,pIC50,SNX-2112,< 5.59
same,AUC,Vinblastine,0.569
same,pIC50,Vinblastine,8.00
"VCaP (prostate, adherent)",AUC,XMD13-2,0.896
same,pIC50,XMD13-2,< 4.99
same,AUC,PF-562271,0.935
same,pIC50,PF-562271,< 5.59
same,AUC,Afatinib; [1],0.981
same,pIC50,Afatinib; [1],< 6.30
same,AUC,Afatinib; [2],0.984
same,pIC50,Afatinib; [2],< 5.00
same,AUC,SNX-2112,0.851
same,pIC50,SNX-2112,5.68
same,AUC,Vinblastine,0.602
same,pIC50,Vinblastine,7.92
"SNU-423 (liver, adherent)",AUC,XMD13-2,0.919
same,pIC50,XMD13-2,< 4.99
same,AUC,PF-562271,0.863
same,pIC50,PF-562271,< 5.59
same,AUC,Afatinib; [1],0.983
same,pIC50,Afatinib; [1],< 6.30
same,AUC,Afatinib; [2],0.947
same,pIC50,Afatinib; [2],< 5.00
same,AUC,SNX-2112,0.439
same,pIC50,SNX-2112,6.97
same,AUC,Vinblastine,0.661
same,pIC50,Vinblastine,7.72
"H9 (lymphoid neoplasm, suspension)",AUC,XMD13-2,0.989
same,pIC50,XMD13-2,< 4.99
same,AUC,PF-562271,0.912
same,pIC50,PF-562271,5.59
same,AUC,Afatinib; [1],0.992
same,pIC50,Afatinib; [1],< 6.30
same,AUC,Afatinib; [2],0.95
same,pIC50,Afatinib; [2],< 5.00
same,AUC,SNX-2112,0.167
same,pIC50,SNX-2112,7.69
same,AUC,Vinblastine,0.48
same,pIC50,Vinblastine,8.25
"RPMI-8226 (myeloma, suspension)",AUC,XMD13-2,0.918
same,pIC50,XMD13-2,< 4.99
same,AUC,PF-562271,0.979
same,pIC50,PF-562271,< 5.59
same,AUC,Afatinib; [1],0.962
same,pIC50,Afatinib; [1],< 6.30
same,AUC,Afatinib; [2],0.981
same,pIC50,Afatinib; [2],< 5.00
same,AUC,SNX-2112,0.38
same,pIC50,SNX-2112,7.10
same,AUC,Vinblastine,0.309
same,pIC50,Vinblastine,8.70
"NCI-H2029 (small cell lung carcinoma, adherent)",AUC,XMD13-2,0.957
same,pIC50,XMD13-2,< 4.99
same,AUC,PF-562271,0.989
same,pIC50,PF-562271,< 5.59
same,AUC,Afatinib; [1],0.992
same,pIC50,Afatinib; [1],< 6.30
same,AUC,Afatinib; [2],0.992
same,pIC50,Afatinib; [2],< 5.00
same,AUC,SNX-2112,0.856
same,pIC50,SNX-2112,5.76
same,AUC,Vinblastine,0.92
same,pIC50,Vinblastine,< 7.00
"DOK (head and neck, adherent)",AUC,XMD13-2,0.938
same,pIC50,XMD13-2,< 4.99
same,AUC,PF-562271,0.9
same,pIC50,PF-562271,< 5.59
same,AUC,Afatinib; [1],0.453
same,pIC50,Afatinib; [1],7.66
same,AUC,Afatinib; [2],0.448
same,pIC50,Afatinib; [2],6.38
same,AUC,SNX-2112,0.724
same,pIC50,SNX-2112,6.01
same,AUC,Vinblastine,0.497
same,pIC50,Vinblastine,8.21
"HuP-T4 (pancreas, adherent)",AUC,XMD13-2,0.87
same,pIC50,XMD13-2,< 4.99
same,AUC,PF-562271,0.935
same,pIC50,PF-562271,< 5.59
same,AUC,Afatinib; [1],0.869
same,pIC50,Afatinib; [1],< 6.30
same,AUC,Afatinib; [2],0.899
same,pIC50,Afatinib; [2],< 5.00
same,AUC,SNX-2112,0.392
same,pIC50,SNX-2112,7.10
same,AUC,Vinblastine,0.631
same,pIC50,Vinblastine,7.83
"A253 (head and neck, adherent)",AUC,XMD13-2,0.964
same,pIC50,XMD13-2,< 4.99
same,AUC,PF-562271,0.906
same,pIC50,PF-562271,< 5.59
same,AUC,Afatinib; [1],0.949
same,pIC50,Afatinib; [1],< 6.30
same,AUC,Afatinib; [2],0.941
same,pIC50,Afatinib; [2],< 5.00
same,AUC,SNX-2112,0.892
same,pIC50,SNX-2112,< 5.59
same,AUC,Vinblastine,0.619
same,pIC50,Vinblastine,7.88
